Measurements published in the antibiotic and cytotoxicity screens of Wong et al. (2023).
Some of the results follow.

How the values were obtained:
HSkMC = human skeletal muscle cells; assay: cytotoxicity call (relative viability < 0.9); details: 10 µM
HepG2 = assay: cytotoxicity call (relative viability < 0.9); details: 10 µM
S. aureus RN4220 = assay: growth inhibition call (relative growth <= 0.2); details: 50 µM

SMILES	cytotoxicity call (HSkMC)	cytotoxicity call (HepG2)	growth inhibition call (S. aureus RN4220)
COc1ccc(CN(C)C[C@H]2Oc3c(NC(=O)CCCCCC(=O)Nc4ccccc4N)cccc3C(=O)N([C@H](C)CO)C[C@@H]2C)cc1	inactive	inactive	inactive
COc1ccccc1-c1cnc2c(c1)C(=O)N([C@H](C)CO)C[C@@H](C)[C@@H](CN(C)C(=O)c1cccnc1)O2	inactive	inactive	inactive
CCN(CC)CCOC(=O)C(Cc1cccc2ccccc12)CC1CCCO1.O=C(O)C(=O)O (centres undefined)	inactive	active	inactive
C[C@H](CO)N1C[C@H](C)[C@H](CN(C)S(=O)(=O)c2cccs2)Oc2ccc(NC(=O)Cc3ccccc3)cc2C1=O	inactive	inactive	inactive
Cc1nc2n(c(=O)c1C)[C@H](CC(=O)O)CS2	inactive	inactive	inactive
Cc1ccc(S(=O)(=O)N(C)C[C@@H]2Oc3c(NC(=O)c4cc(C)nn4C)cccc3C(=O)N([C@H](C)CO)C[C@H]2C)cc1	inactive	inactive	inactive
Cc1ccc(S(=O)(=O)N(C)C[C@H]2Oc3c(NS(=O)(=O)c4cn(C)cn4)cccc3C(=O)N([C@@H](C)CO)C[C@H]2C)cc1	inactive	inactive	inactive
COc1ccccc1S(=O)(=O)N(C)C[C@@H]1OCc2cn(nn2)CCCC(=O)N([C@H](C)CO)C[C@@H]1C	inactive	inactive	inactive
C[C@H](CO)N1C[C@H](C)[C@H](CN(C)Cc2ccc(C(=O)Nc3ccccc3N)cc2)Oc2ccc(NC(=O)Nc3cccc4ccccc34)cc2CC1=O	inactive	active	inactive
COc1ccccc1S(=O)(=O)N[C@@H]1C=C[C@@H](CC(=O)N2CCN(C)CC2)O[C@H]1CO	inactive	inactive	inactive
C[C@@H]1CN([C@H](C)CO)C(=O)c2cccc(NC(=O)c3ccc(-c4nccs4)cc3)c2O[C@H]1CN(C)S(C)(=O)=O	inactive	inactive	inactive
Cc1ccc(S(=O)(=O)Nc2ccc3c(c2)C(=O)N([C@@H](C)CO)C[C@H](C)[C@@H](CN(C)C(=O)Nc2c(C)noc2C)OCCCC[C@@H](C)O3)cc1	inactive	inactive	inactive
C[C@@H]1CN([C@@H](C)CO)C(=O)c2cccc(NC(=O)C3CC3)c2O[C@@H]1CN(C)S(=O)(=O)c1ccc(F)cc1	inactive	inactive	inactive
C[C@H](CO)N1C[C@H](C)[C@H](CN(C)Cc2ccc(C(=O)Nc3ccccc3N)cc2)Oc2ccc(NC(=O)Nc3ccccc3)cc2C1=O	inactive	inactive	inactive
COCC#Cc1ccc2c(c1)O[C@H](CN(C)C(=O)C1CCOCC1)[C@@H](C)CN([C@@H](C)CO)S2(=O)=O	inactive	inactive	inactive
COc1ccc(CN(C)C[C@@H]2OCCCC[C@@H](C)Oc3ccc(NS(=O)(=O)c4ccc(C)cc4)cc3C(=O)N([C@H](C)CO)C[C@@H]2C)cc1	inactive	inactive	inactive
O=C(C[C@H]1C=C[C@H](NC(=O)Cc2ccccn2)[C@@H](CO)O1)NCCCN1CCOCC1	inactive	inactive	inactive
Cc1ccc(S(=O)(=O)Nc2cccc3c2O[C@@H](CN(C)Cc2ccc(C(F)(F)F)cc2)[C@H](C)CN([C@@H](C)CO)C3=O)cc1	inactive	inactive	inactive
COc1ccc([Si](C)(C)[C@@H]2[C@@H](CC(=O)N3CCC[C@H]3CO)O[C@]3(C(=O)N(Cc4cccc(N5CCCCC5=O)c4)c4ccccc43)[C@H]2C)cc1	inactive	inactive	inactive
CN1CCC(=C2c3ccccc3C=Cc3ccccc32)CC1.Cl	inactive	active	inactive
CN(N=O)C(=O)NC1C(O)OC(CO)C(O)C1O (centres undefined)	inactive	inactive	inactive
C[C@@H]1CCCCO[C@H](CN(C)Cc2ccccc2)[C@@H](C)CN([C@@H](C)CO)C(=O)c2cc(NC(=O)c3ccccc3)ccc2O1	inactive	inactive	inactive
CNC[C@@H]1Oc2cc(C#CCN(C)C)ccc2S(=O)(=O)N([C@H](C)CO)C[C@@H]1C	inactive	inactive	inactive
C[C@H]1CN([C@@H](C)CO)C(=O)Cc2cc(NS(=O)(=O)c3cn(C)cn3)ccc2O[C@H]1CN(C)C(=O)Nc1ccc2c(c1)OCO2	inactive	inactive	inactive
C[C@@H]1CN([C@H](C)CO)C(=O)Cc2cc(NC(=O)Nc3ccc(C(F)(F)F)cc3)ccc2O[C@H]1CN(C)C(=O)Nc1cccc2ccccc12	inactive	inactive	inactive
COCC#Cc1cnc2c(c1)C(=O)N([C@@H](C)CO)C[C@@H](C)[C@@H](CN(C)C(=O)c1ccc3c(c1)OCO3)O2	inactive	inactive	inactive
Nc1ncnc2c1ncn2[C@@H]1O[C@H](COP(=O)(O)OP(=O)(O)OP(=O)(O)OP(=O)(O)OC[C@H]2O[C@@H](n3cnc4c(N)ncnc43)[C@H](O)[C@@H]2O)[C@@H](O)[C@H]1O	inactive	active	inactive

SMILES	cytotoxicity call (HSkMC)	cytotoxicity call (HepG2)	growth inhibition call (S. aureus RN4220)
C[C@@H]1CN([C@H](C)CO)C(=O)Cc2cc(NC(=O)Nc3ccccc3)ccc2O[C@H]1CN(C)C(=O)Nc1ccc(C(F)(F)F)cc1	inactive	inactive	inactive
O=C(C[C@H]1CC[C@H](NC(=O)c2cnccn2)[C@H](CO)O1)NCc1ccccc1F	inactive	inactive	inactive
C[C@@H]1CCCCO[C@H](CN(C)C(=O)Nc2ccc(F)cc2)[C@H](C)CN([C@H](C)CO)C(=O)c2cc(NC(=O)Cc3ccccc3)ccc2O1	inactive	inactive	inactive
Cc1noc(C)c1NC(=O)N(C)C[C@H]1Oc2c(NS(=O)(=O)c3c(C)noc3C)cccc2C(=O)N([C@@H](C)CO)C[C@H]1C	inactive	inactive	inactive
C[C@@H]1CN([C@H](C)CO)C(=O)c2cccc(NS(=O)(=O)c3cn(C)cn3)c2O[C@H]1CN(C)Cc1ccc2c(c1)OCO2	inactive	inactive	inactive
C[C@H]1CN([C@@H](C)CO)C(=O)c2cc(NS(=O)(=O)c3ccc(F)cc3)ccc2O[C@H]1CN(C)S(=O)(=O)c1ccc(F)cc1	inactive	inactive	inactive
C#CC1(O)CCC2C3CCC4=Cc5oncc5CC4(C)C3CCC21C (centres undefined)	inactive	inactive	inactive
Cc1ccc(S(=O)(=O)Nc2ccc3c(c2)CC(=O)N([C@@H](C)CO)C[C@@H](C)[C@H](CN(C)S(C)(=O)=O)O3)cc1	inactive	inactive	inactive
NC(=O)N1C(=O)[C@H]2[C@H](C1=O)[C@H]1C=C(CCCO)[C@@H]2[C@H](c2ccc(CN3CCCC3)cc2)N1Cc1sc2ccccc2c1Cl	inactive	inactive	inactive
Cc1noc(C)c1S(=O)(=O)Nc1ccc2c(c1)CC(=O)N([C@H](C)CO)C[C@H](C)[C@H](CN(C)Cc1ccc(C(=O)O)cc1)O2	inactive	inactive	inactive
CN(C)CC(=O)N1CC2(C1)[C@@H](c1ccccc1)[C@H](CO)N2S(C)(=O)=O	inactive	inactive	inactive
C[C@H](NC(=O)C[C@H]1C=C[C@@H](NC(=O)CN2CCOCC2)[C@H](CO)O1)c1ccccc1	inactive	inactive	inactive
CN1C(=O)c2cc(NC(=O)C3CCOCC3)ccc2OC[C@H]2O[C@@H](CC(=O)NCc3ccc4c(c3)OCO4)CC[C@H]21	inactive	inactive	inactive
COc1ccc(CN(C)C[C@H]2Oc3ccc(NC(=O)Nc4ccc(C(F)(F)F)cc4)cc3C(=O)N([C@@H](C)CO)C[C@@H]2C)cc1	active	active	inactive
C[C@H](CO)N1C[C@H](C)[C@H](CN(C)C)Oc2ccc(NS(C)(=O)=O)cc2CC1=O	inactive	inactive	inactive
CCC(C)(C)C(=O)C(=O)N1CCCC[C@H]1C(=O)O[C@@H](CCc1ccc(OC)c(OC)c1)c1cccc(OCC(=O)NCCc2ccc(O)cc2)c1	inactive	inactive	inactive
Cc1ccc(S(=O)(=O)Nc2ccc3c(c2)C(=O)N([C@@H](C)CO)C[C@@H](C)[C@H](CN(C)Cc2ccc(C(=O)O)cc2)OCCCC[C@H](C)O3)cc1	inactive	inactive	inactive
C[C@H](CO)N1C[C@H](C)[C@@H](CN(C)C(=O)Nc2ccc(F)cc2)Oc2ccc(NC(=O)CCCCCC(=O)Nc3ccccc3N)cc2CC1=O	inactive	inactive	inactive
O=C(O)CSc1ncnc2nc[nH]c12	inactive	inactive	inactive
C[C@@H]1CN([C@H](C)CO)C(=O)c2cc(NC(=O)Nc3ccc4c(c3)OCO4)ccc2O[C@@H]1CN(C)Cc1ccc(C(=O)Nc2ccccc2N)cc1	inactive	inactive	inactive
COc1ccc(S(=O)(=O)Nc2ccc3c(c2)C(=O)N([C@@H](C)CO)C[C@@H](C)[C@@H](CN(C)C(=O)Nc2ccccc2)OCCCC[C@H](C)O3)cc1	inactive	inactive	inactive
CO[C@@H]1CN(C)C(=O)c2cc(NC(=O)Nc3ccccc3F)ccc2OC[C@@H](C)N(Cc2ccccc2C(=O)O)C[C@@H]1C	inactive	inactive	inactive
C[C@@H]1CN([C@H](C)CO)C(=O)c2cc(NS(=O)(=O)c3ccccc3)ccc2O[C@@H](C)CCCCO[C@@H]1CN(C)C(=O)c1ccccc1	inactive	inactive	inactive
C[C@H]1CN([C@@H](C)CO)C(=O)c2cc(NC(=O)Cn3cnnn3)ccc2O[C@@H]1CN(C)Cc1ccc(Oc2ccccc2)cc1	inactive	inactive	inactive
C[C@@H]1CN([C@H](C)CO)C(=O)Cc2cc(NS(C)(=O)=O)ccc2O[C@H]1CN(C)C(=O)Nc1ccc(C(F)(F)F)cc1	inactive	inactive	inactive
Cc1ccc(-c2ccc3c(c2)O[C@H](CN(C)C(=O)CN(C)C)[C@@H](C)CN([C@H](C)CO)S3(=O)=O)cc1	inactive	inactive	inactive
